Laboratory results: the supplement of paper PMC12067230
The data scatter; read single values as rough.

B1: library; a variant is named by its letters at X, in order (parent)
chain: EASNCFAIRHFENKFAVETLICXXXXXXXXX
B2: library; a variant is named by its letters at X, in order (parent)
chain: EASNCFAIRHFENKFAVETLICXXXXXXXX

Variants of: B1
Experiment: amyloid nucleation score relative to library mode (yeast Sup35 reporter selection) (log enrichment difference); higher = more amyloid nucleation; sequences are the first 22 residues of the Bri2 peptide extended by up to 12 random residues
Details: random library (experiment): 2;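 active = nucleation score significantly above 0 at FDR 0.05; inactive = not significantly above 0 or absent from output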
Description: (§1)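 Random C-terminal extensions of the 22-aa Bri2 peptide by 12 NNK codons; premature stops give shorter extensions. Peptides were fused to the Sup35 nucleation domain in S. cerevisiae [psi-pin-] and selected on -ADE-URA plates for 7 d at 30 °C. The nucleation score is log(output/input), centred to the mode of each of 3 independent libraries (1 input, 3 technical output replicates), with duplicates merged. Sequences absent from the output ('random_non_nuc') were imputed with the library mode value, so they are given as censored (<). Nucleators are scores significantly >0 at FDR 0.05.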
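Further: [psi-pin-] Saccharomyces cerevisiae expressing SupN fusions, induced by 100 µM Cu2SO4, selected 7 d at 30 °C without adenine and uracil, scored by deep sequencing of output versus input.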

Variant	amyloid nucleation score
FDCAGQSPI	4.66
DTFNYNKSC	6.44
KLDYIYLVT	inactive
RLEAREALP	inactive
NKEFYELCT	inactive
GYMVSSTRC	inactive
RNHECFCGE	inactive

Same assay, conditions: random library (experiment): 1

Variant	amyloid nucleation score
FQAWVRGRN	5.53
ISYSSTYQV	-0.0479
GVLLGGDVR	3.75
VFYLTGYAR	inactive
GIHMVFDEA	4.66
RWQSGIGFC	inactive
CRSSDAEVQ	2.94
MSWPIMWYM	inactive
IQQARPCVL	inactive
VTVRNFMGD	inactive
RFQGMEKVA	inactive
VVLDRFAVI	6.46
RSLLCNLMG	3.17
GYEYRNEGS	inactive
LWRGGFDAY	inactive
RNGHFDVYP	inactive
RSRMCDARP	-0.00976
PEMSSTAPS	0.855
IGYRVGHTL	inactive
RSAPPGWLR	2.4
YPCRCKGKT	8.92
GVLCFDSGC	7.29
HMTCNGFWG	5.14

Variant	amyloid nucleation score
VWCSNRSGS	8.79
FTRCGLSGR	2.41
PFDGEVGRF	inactive
VFRFRSTFY	-0.129
WVVITRGSG	inactive
RSCMEGYSG	inactive
DLCLRWRKC	inactive
NIRSDHAFG	6.6
CGGMALGPA	8.36
LFERNTSER	4.58
YTYLNKYNS	2.8
LNTTNPLGR	-0.00976
RNKPTSGTT	inactive
QFKRSVCTN	0.661
AKSRRSSRR	inactive
FIRRVHIVR	5.37
TVSPGGMDK	-0.195
LNRRVVQFT	inactive
DESLLARCL	inactive
ETRTVIDGK	0.636
ITELRYSHC	inactive
VLGLGRLER	5.59
GTYRRMAYK	-0.0664

Variants of: B2
Experiment: as above
Details: random library (experiment): 3
Description: as §1

Variant	amyloid nucleation score
QPKPSCVY	0.104
ESGWIQTL	inactive
APGRWKEA	inactive
AETSIGSA	inactive
VGRWSSHG	inactive
RGVVCRDG	inactive
MREVVGFN	inactive
GSKARRWS	inactive
VEWVQSKV	0.788
AVSYTSLL	inactive
DNGFWGRA	inactive
LGVRIGML	inactive
LNYNGAVV	5.37
RLCLAECR	inactive
TEYVNEGM	0.711
VVQLAGRW	-0.532
CAHCCRNN	7.56
QACLHTTV	4.31
YNMIMYSC	6.42
IRHREWQG	2.91
RSGLHSCM	inactive

Variant	amyloid nucleation score
LKVQWRRD	3.78
GWRTMRGG	inactive
VSGSRRDT	inactive
VVSSHCAL	0.918
ALVVLCGR	4.55
YIPSSRMV	1.2
WVHGNQSF	2.16
DQVRARGT	inactive
TMFYDLHA	inactive
LTRSITGS	inactive
VINGLTMW	4.02
EDQVTSQL	inactive
FLSSTFRD	inactive
LTILCRIL	inactive
RVIWRDKA	-0.0945
PSVFIEFR	6.48
VSWLTAVG	inactive
PGWDAKRS	inactive
WWFAYRRR	inactive
NHAFQGCG	inactive
NDMSMSDF	inactive

Variant	amyloid nucleation score
GTSGGRYT	inactive
LSDMLEAR	0.221
IVQRSQLS	1.72
TATDMVYR	inactive
QCSEVRQW	6.94
LCDQLVRK	8.43
NCSCKLVV	7.2
TWVITSFP	inactive
GMSWGRSG	5.13
WKVWMGYW	inactive
MLLCWWFV	inactive
WDVRVVGS	inactive
THHYSSDR	inactive
RHESCLMV	inactive
FRFKSFVI	inactive
DFGMKSCG	inactive
QQEVWRQP	inactive
LLVYSCAG	inactive
FGCACIYR	8.9
GLQGAARY	inactive
LSSSLCDT	6.58

Variant	amyloid nucleation score
VELYNSVY	inactive
GEKGSLCG	inactive
CMTYRIWL	inactive
VASRSAVI	inactive
GGCPQLRL	-0.0354
GTKTLATQ	inactive
ELLTGCIV	inactive
WSWRNTTR	inactive
GRRSNLKH	inactive
GRRYGWYF	inactive
RRKARLVA	inactive
LSVLVVPN	4.76
QFVGVRRC	inactive
NVTVELRM	8.65
FATSGAGE	5.21
WWAVTTSA	inactive
YSRMNQSG	4.28
NAAWRMDS	1.3
